The campaign covered roughly 46,000 compounds. About 60 (0.1%) were called active. About 3% were inconclusive and are not listed. The call rests on the fitted dose curve; in most records, active means well fitted inhibition curve with a large enough effect; inconclusive means small, poorly fitted or top-dose-only effect; inactive means no such curve, though single readings can be large or run the other way. The list shows a part of the results.
Experiment: Primary qHTS assay for Inhibitors of ovarian cancer metastasis using an organotypic tumor microenvironment (TME) model. Further: nearly all actives have a fitted effect of over 65% in size.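 On activity change, negative = inhibition: plate controls were DMSO wells for no effect and tomatine positive control wells for full effect.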
Details: SKOV3ip1-GFP adhesion/invasion on 3D omental model, fluorescence; series mostly up to 45.8 µM; activity change, negative = inhibition: at the top concentration
Summary of the method: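 A 3D layer of primary human omental fibroblasts, mesothelial cells, fibronectin and collagen I, grown 48 hr, received SKOV3ip1-GFP cells in serum-free medium plus compounds at 0.36-46 umol/L. After 2 hr RT and 16 hr 37 C, fixed adherent GFP cells were counted; normalized to DMSO and tomatine.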

Activity change, negative = inhibition, inactive:
O=S(=O)(Nc1ccc(-c2ccc(N3CCCCCC3)nn2)cc1)c1cccc(C(F)(F)F)c1 5.16%, CCc1nn(CC(=O)N2CCN(c3cc(C)ccc3C)CC2)c(=O)c2cc3occc3n12 44.3%, Fc1ccccc1N1CCN(c2ncc3c(n2)CCN(Cc2ccc(Br)s2)C3)CC1 2.22%, COc1ccccc1CCNC(=O)C(=O)NCC(c1cccs1)S(=O)(=O)c1ccc(F)cc1 (stereo not drawn) 1.04%, CC(Oc1ccccc1)C(=O)OCc1cc(=O)n2nc(C(C)C)sc2n1 (stereo not drawn) 4.1%, Cc1ccc2nc(-c3cccc(Cl)c3)c(Nc3ccc4c(c3)OCO4)n2c1 -2.75%, Cc1ccc(C)c(NC(=O)N2CCc3cc(S(=O)(=O)N4CCC(C)CC4)ccc32)c1 -7.96%, COc1ccc(Cl)cc1NC(=O)C1CCN(S(=O)(=O)c2ccc3c(c2)CCCN3C(=O)C2CCC2)CC1 1.66%, COc1ccccc1NC(=O)Cn1cc(C(=O)c2ccncc2)c(=O)c2cc(C)ccc21 -28.7%, COc1ccccc1CNC(=O)c1ccc2c(c1)nnn2C1CCCC1 4.92%, Cc1ccc(NC(=O)N2CCN3CCCCC3C2)cc1F (stereo not drawn) 1.24%, Cc1ccsc1CN(C(=O)c1ccc(Br)cc1)C1CCS(=O)(=O)C1 (stereo not drawn) 7.76%, CCc1ccc(S(=O)(=O)c2nnn3c2nc(NCc2cccc(OC)c2)c2cc(Cl)ccc23)cc1 1.16%, O=C(Nc1ccc(Cl)cc1)c1cc2c(Cl)nc3ccccc3c2s1 -6.98%, CN(C)c1ccc(-c2noc(C3CC(=O)N(c4ccc5c(c4)OCCO5)C3)n2)cc1 (stereo not drawn) -18.5%, CCCC(CCC)C(=O)Nc1nnc2n1CCS2 -3.23%, CCc1nnc2c3ccccc3nc(Nc3ccc(F)c(Cl)c3)n12 -2.56%, O=C(Nc1ccc(S(=O)(=O)N2CCCCC2c2cccnc2)cc1)c1ccc(F)cc1 (stereo not drawn) -22.4%, CCN(Cc1ccccc1)C(=O)CN1C(=O)CSc2ccc(S(=O)(=O)N(CC)CC)cc21 11.6%, CCc1ccc(CNC(=O)c2nn(-c3ccc(OC)c(Cl)c3)c(=O)c3c2c2ccccc2n3C)cc1 6.31%, COc1ccc(-c2c3c(nc4sc(C(=O)Nc5ccccc5F)c(N)c24)CC(C)(C)CC3=O)cc1 -10.7%, COC(=O)CSc1nc2sc3c(c2c(=O)n1Cc1ccccc1)CCC(C(C)(C)C)C3 (stereo not drawn) 4.08%, COc1ccc(-c2nn(CC(=O)NCc3ccccc3)c3c2cnc2ccc(F)cc23)cc1 -1.32%, CCCCN(C)CCCNC(=O)CN1C(=O)CSc2ccc(S(=O)(=O)N3CCOCC3)cc21 7.51%, COc1cc2oc(=O)c(CC(=O)NCCc3ccccc3F)c(C)c2cc1OC 8.71%, Cc1ccc(NC(=O)C2CCCN(S(=O)(=O)c3ccc4[nH]c(=O)ccc4c3)C2)cc1C (stereo not drawn) 11%, O=C(Cn1c(=O)nc(-c2ccccc2F)c2cc(Cl)ccc21)Nc1ccccc1C(F)(F)F -4.65%, Cc1ccc(-c2nc3nc(C)cc(N4CCN(c5cccc(C)c5)C(C)C4)n3n2)cc1 (stereo not drawn) 91.6%, CCn1cc(C(=O)N2CCN(c3ccccc3)CC2)c(=O)c2cc(S(=O)(=O)N3CCCC3)ccc21 -4.51%, CCn1c(C(=O)NCc2ccc(OC)cc2)cc2sc(Cl)cc21 -13.6%, CCNC(=O)c1c(NC(=O)Cc2coc3cc(C)ccc23)sc2c1CCCC2 -24.2%, CCOc1ccc(S(=O)(=O)Nc2cccc(C)c2)c2cccnc12 9.34%, Cc1ccc(Nc2ncnc3onc(C)c23)cc1Cl -0.716%, CCc1ccccc1NC(=O)Cc1cn(C)c2ccccc12 -4.08%, O=C(Nc1c(O)c2ccccc2oc1=O)c1cccc(F)c1 -1.35%, CCOC(=O)c1[nH]c(C)c(CCC(=O)NCc2cccc(C)c2)c1C 4.27%, Cc1ccc(OCC(=O)N(Cc2ccco2)c2ccccn2)cc1 8.74%, CCCCOC(=O)c1ccc(NC(=O)Cc2coc3c(C)c(C)ccc23)cc1 -15.6%, Cc1c(Cl)cccc1NC(=O)CSc1ncc(S(=O)(=O)c2ccc(C(C)C)cc2)c(=O)[nH]1 1.02%, Cc1cc(C)cc(NC(=O)c2ccc3c(O)c(S(=O)(=O)c4ccccc4)c(=O)[nH]c3c2)c1 -7.63%, Cc1ccc(C(=O)N2CCN(c3ccc(F)cc3)CC2)cc1NC(=O)c1nsc2ccccc12 -17%, Cc1ccc(-c2nnc(Nc3ccc(Cl)c(Cl)c3)c3ccccc23)cc1S(=O)(=O)N(C)C -2.14%, COc1ccc(CCNS(=O)(=O)c2ccc(F)c(C(=O)Nc3ccc(Cl)cc3)c2)cc1OC -9.15%, Cc1cccc(CNC(=O)CN2C(=O)C3CCCCN3c3ccc(C(=O)N4CCCC4)cc32)c1 (stereo not drawn) 1.19%, Oc1c(C(c2ccccc2Cl)N2CCOCC2)sc2nc(-c3ccco3)nn12 (stereo not drawn) -4.55%, CCC(=O)N1CCc2cc(CNC(=O)Nc3cc(C)ccc3C)ccc21 -1.64%, CC(=O)N1CCN(c2nc3c(C)ccc(Cl)c3s2)CC1 0.637%, CC(=O)c1cccc(NC(=O)Cn2c(=O)oc3cc(S(=O)(=O)NC4CCCC4)ccc32)c1 -2.65%, Cc1nc(-n2nc(C)c(Cc3ccc(Cl)cc3)c2C)sc1C(=O)N1CCCCC1C (stereo not drawn) 6.26%, COc1cccc(NC(=O)CSc2nccn2Cc2ccc3c(c2)OCO3)c1 5.06%, COc1ccc(C2c3c(oc4ccc(Cl)cc4c3=O)C(=O)N2CCCN(C)C)cc1OC (stereo not drawn) 2.76%, COc1ccc(OC)c(NC(=O)C(C)n2nc(C)c3c(C)n(-c4ccccc4)nc3c2=O)c1 (stereo not drawn) 6.1%, Cc1ccc(NC(=O)CN2C(=O)CC(c3ccc(F)cc3)=Nc3ccccc32)cc1F -16.2%, COc1ccc(CN(C(=O)Nc2cccc(OC)c2)C2CCN(C(C)=O)CC2)cc1 -4.5%, O=c1[nH]c2ccc(NCc3ccc(-c4ccc(Cl)cc4)o3)cc2[nH]1 8.16%, CCOc1ccccc1Nc1nc(-c2ccc(C)cc2)c(CC(=O)O)s1 -28.3%, COc1ccc(/C=C\c2onc(C)c2S(=O)(=O)N2CCC(C(=O)Nc3cccc(C)c3C)CC2)cc1 -6.73%, CO[C@H]1C[C@@H]2CC[C@@H](C)[C@@](O)(O2)C(=O)C(=O)N2CCCC[C@@H]2C(=O)O[C@H]([C@@H](C)C[C@@H]2CC[C@H](O)[C@H](OC)C2)CC(=O)[C@H](C)C=C(C)[C@@H](O)[C@@H](OC)C(=O)[C@H](C)C[C@H](C)C=CC=CC=C1C 33.7%, CC1(C)C(N(O)C(=O)Nc2ccc(Cl)cc2)N(c2ccc(Cl)cc2)C(=O)N1CC(=O)NN=CC=Cc1ccc([N+](=O)[O-])o1 (stereo not drawn) -7.8%, Cc1oc2ncnc(N3CCOCC3)c2c1C(=O)NCc1ccccc1 -3.58%, O=C(CCn1cccn1)Nc1cccc(C(F)(F)F)c1 1.42%, COc1ccc(C(=O)NCc2ccc3c(c2)CCN3C(=O)c2cccc(C)c2)cc1OC 2.51%, Cc1ccc(C(=O)c2cn(Cc3cccc(F)c3)c3nc(C)ccc3c2=O)cc1 26.5%, Cc1ccc(NC(=O)Cn2cc(C(=O)c3cccs3)c3ccccc32)cc1C 7.99%, Cc1ccc(-n2c(=O)c3c(cnn3C)n(CC(=O)Nc3cc(C)ccc3C)c2=O)cc1 -3.13%, CCCN(Cc1cccs1)C(=O)Nc1ccc(Br)c(C)c1 5.69%, CC(C)Cn1c(-c2ccc(S(=O)(=O)N3CCCC3)cc2)csc1=Nc1ccccc1 -1.15%, Cc1cccc(NS(=O)(=O)c2ccc(Cl)c(C(=O)Nc3ccccc3C)c2)c1 0.841%, COc1ccc(CCNC(=O)CSc2nc3ccccc3nc2Cc2ccc(Cl)cc2)cc1OC 15.4%, CC=C(C)C(=O)O[C@H]1C(C)=C[C@]23C(=O)[C@@H](C=C(CO)[C@@H](O)[C@]12O)[C@H]1[C@@H](C[C@H]3C)C1(C)C 0.346%, Cc1oc(-c2ccccc2)nc1CNS(=O)(=O)c1ccc(Cl)cc1 -7.26%, COc1ccc(OC)c(-n2cnc3cc(C(=O)NC4CCCC4)ccc32)c1 2.44%

outcome, inactive:
COc1ccc(CCNc2nc(SCc3ccc(F)cc3)nc3ccccc23)cc1OC, CC1=C(c2ccc(C)c(C)c2)S(=O)(=O)N=C1N1CCC(C(=O)Nc2ccc(Cl)cc2)CC1, Cc1cc(=O)[nH]c2nnc(SCC(=O)Nc3ccc(F)cc3F)n12, O=C(Nc1cccc(-c2nc3ccccc3[nH]2)c1)c1ccccc1F, COc1ccc(NC(=O)c2cc(S(=O)(=O)N3CCCCC3)cn2C)cc1Cl, CCOc1ccccc1NC(=O)CN1C(=O)COc2ccc(S(=O)(=O)Nc3ccccc3)cc21, CCCCNC(=O)Cn1ncc2c(C)n(Cc3cccc(Cl)c3)c(C)c2c1=O, O=C(NCc1cccs1)c1nn(-c2ccccc2F)nc1CO, CCOC(=O)c1c(C)[nH]c(C)c1S(=O)(=O)N1CCCC(C(=O)Nc2ccc(C)c(N(C)C)c2)C1 (stereo not drawn), COC(=O)c1ccccc1NC(=O)C1(c2cccs2)CCOCC1, O=C(CSCc1ccccc1Cl)NCc1ccc(Cl)c(Cl)c1, Cc1ccc(C)c(Cn2c3ccccc3c3cnn(CC(=O)NCC(C)c4ccccc4)c(=O)c32)c1 (stereo not drawn), COc1cccc(CNC(=O)CN2C(=O)N(c3c(C)cccc3C)S(=O)(=O)c3ccccc32)c1OC, Cc1cccc(C)c1NC(=O)CCS(=O)(=O)c1ccc2c(c1)CC(C)N2C(=O)C1CC1 (stereo not drawn), CCOc1ccc(NC(=O)Cn2nnc(C(=O)NCc3cccs3)c2N)cc1, COc1ccc2c(c1)CCc1c(C(=O)Nc3c(C)nn(Cc4ccc(Cl)cc4)c3C)noc1-2, O=C(CCSCc1cnn(-c2ccccc2)c1-n1cccc1)NCc1ccc(Cl)cc1, Cc1nc2sccn2c(=O)c1S(=O)(=O)N1CCN(c2ccc(F)cc2)CC1, O=C(NC1CC(=O)N(c2ccccc2)C1)c1cc2ccccc2o1 (stereo not drawn), O=C(Nc1nnc(S(=O)(=O)N2CCCC2)s1)c1ccc(F)cc1, CCCCOc1ccccc1NC(=O)Cn1c(-c2cncs2)nc2ccccc21

— PubChem BioAssay AID1963576 (National Center for Advancing Translational Sciences (NCATS), 2024)
